Experimental findings from the supplement of paper PMC8674133 are described below.

Numbering of substitutions follows the chain as printed. Recombinant human monoclonal antibodies (heavy:light variable regions). ELISA EC50 on the named antigen, from 10 µg/ml down; IC50 / IC90 against spike pseudovirus on 293T-ACE2 cells, 48 h; lower = stronger. Calls: IC50 above 1,000 ng/ml = non-neutralizing; EC50 above 2,000 ng/ml = non-binder. The source prints 1000 for neutralization that was not reached; it is given as >1000 ng/ml. A few antibodies were first reported in earlier work of the same group.

The target of assay [1] is SARS-CoV-2 Wuhan-Hu-1 spike pseudovirus. Description: pseudovirus neutralization IC50; higher = weaker neutralization. As for the experimental part:
(§1)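 Single-round luciferase reporter pseudovirus mixed with antibody dilutions and put on 293T-ACE2 cells for 48 h; signal relative to no-antibody wells, four-parameter fit.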

Assay [2] shares this target. Description: pseudovirus neutralization IC90; higher = weaker neutralization. On the procedure: as §1
The target in assay [3] is SARS-CoV-2 Wuhan-Hu-1 spike receptor-binding domain. Description: ELISA binding EC50; higher = weaker binding; ELISA of recombinant human antibody on coated antigen, from 10 µg/ml in fourfold dilutions; four-parameter fit. On the technique in general: ELISA stands for enzyme-linked immunosorbent assay.

B1: C1444 (protein)
chain 1: QVQLVESGGGVVQPGRSLRLSCAASGFTFSSYAIHWVRQAPGKGLEWVAVISYDGSFKYCADSVKGRFTISRDNSKNTLYLQMNSLRAEDTAVYYCARESNHMVTVVFDYWGQGTLVTVSS
chain 2: DIQMTQSPSSLSASVGDRVTITCRASQTISSYLNWYQQKPGKAPKLLIYAASSLQSGVPSRFSGSGSGTDFTLTISSLQPEDFGTYYCQQSYSTLENTFGQGTKLEIK
For B1, in assay [1], the “pseudovirus neutralization IC50” value is over 1 µg/mL. Further, the “pseudovirus neutralization IC90” value in assay [2] is over 1 µg/mL. Further, in assay [3], the “ELISA binding EC50” value worked out at 0.00227 µg/mL.

B2: C1442 (protein)
chain 1: EVQLLESGGGLVQPGGSLRLSCAASGFTFSSYAMSWVRQAPGKGLEWVSAISGGGGSTDYADSVKGRFTISRDNSKNTLYLQMNSLRAEDTAVYYCVMDTVLITDRYFDYWGQGSLVTVSS
chain 2: SYELTQPPSVSVSPGQTARITCSGDALPNQYAYWYQQKPGQAPVLVIYKDSERPSGIPERFSGSTSGTTVTLTISGVQAEDEADYYCQSADSSGVVFGGGTKLTVL
Consider B2, for which, in assay [1], the “pseudovirus neutralization IC50” value is over 1 µg/mL. Also, the “pseudovirus neutralization IC90” value in assay [2] was over 1 µg/mL. The “ELISA binding EC50” value in assay [3] came to 0.00292 µg/mL.

B3: C1436 (protein)
chain 1: EVQLLESGGGLVQPGGSLRLSCAASGFTFSSYAKTWVRQAPGKGLEWVSGISGSGGSTYYADSVKGRFTISSDNSKNTLYLQMNSLRAEDTAVYYCAGRYCSSNTYSGCYYYGMDVWGQGTTVTVSS
chain 2: DIQMTQSPSSLSASVGDRVTITCRASQSISSFLNWYQQKPGKAPKLLIYAASSLQSGVPSRFSGSGSGTDFTLTISSLQPEDFATYFCQQSYITPQTFGQGTKVEIK
With B3, the “pseudovirus neutralization IC50” value in assay [1] is 0.00304 µg/mL. In addition, the “pseudovirus neutralization IC90” value in assay [2] worked out at 0.0396 µg/mL. Further, in assay [3], the “ELISA binding EC50” value amounted to 0.00206 µg/mL.

B4: C1435 (protein)
chain 1: EVQLLESGGGLVQPGGSLRLSCAASGFTFSSYAMNWVRQAPGKGLEWVSGISGRGGSTYYADSVKGRFTFSRDNSKNTLYLQMNSLRAEDTAVYYCAKGQGAYSAYDPDYYYGMDVWGQGTTVTVSS
chain 2: SYELTQPPSVSVSPGQTARITCSGDALPKQYSYWYQQKPGQAPVLVIYKESERPSGIPERFSGSSSGTTVTLTISRVQAEDEADYYCQSADYSGTYMFGGGTRLTVL
As to B4, the “pseudovirus neutralization IC50” value in assay [1] came to 0.352 µg/mL. Further, in assay [2], the “pseudovirus neutralization IC90” value is over 1 µg/mL. Also, the “ELISA binding EC50” value in assay [3] stood at 0.00419 µg/mL.

B5: C1438 (protein)
chain 1: QVQLVQSGAEVKKPGASVKVSCKASGYTFSSNGISWVRQAPGQGLEWMGWISAYNGNTNYAQKLQGRVTMTTDTSTSTAYMELRSLRSDDTAVYYCARDLGSSGYYDSSDSYVDFDYWGQGTLVTVSS
chain 2: SYELTQPSSVSVSPGQTARITCSGDVLAKKYARWFQQKPGQAPVLVIYKDTERPSGIPERFSGSSSGTTVTLTISGAQVEDEADYYCYSAADNNRVFGGGTKLTVL
Turning to B5, the “pseudovirus neutralization IC50” value in assay [1] is over 1 µg/mL. Further, the “pseudovirus neutralization IC90” value in assay [2] is over 1 µg/mL. In addition, in assay [3], the “ELISA binding EC50” value stood at 0.00401 µg/mL.

B6: C2429 (protein)
chain 1: QVQLQESGPGLVKPSETLSLTCTVSGGSVSSASYYWSWIRQPPGKGLEWIGYIHYSGSTNYNPSLKSRVTISVDMSKNQLSLKLRSVTAADTAVYYCARDSPYYYDSSDYYPASFDPWGQGTLVTVSS
chain 2: QSALTQPASVSGSPGQSITISCTGTSSDVGSYDLVSWYQQHPGKAPKLMIYEVSKRPSGVSYRFSGSKSGNTASLTISGLQAEDEADYYCCSYAGIRLFGGGTKLTVL
With B6, in assay [1], the “pseudovirus neutralization IC50” value is over 1 µg/mL. In addition, in assay [2], the “pseudovirus neutralization IC90” value was over 1 µg/mL. Also, in assay [3], the “ELISA binding EC50” value came out at 0.00413 µg/mL.

B7: C1241 (protein)
chain 1: EVQLVESGGGLVQPGGSLRLSCSASGFTFSSYAMHWVRQAPGKGLEYVSVISSNGGSTYYADSVKGRFTISRDNSKNTLYLQMSSLRAEDTAVYYCVKDWSTCSSTSCYPAGDAFDIWGQGTMVTVSS
chain 2: SYELTQPPSVSVAPGKTARITCGGNNIGSKSVHWYQQKPGQAPVQVIYYDSDRPSGIPERFSGSNSGNTATLTISRVEAGDEADYYCQVWDSSSDHVVFGGGTKLTVL
Turning to B7, the “pseudovirus neutralization IC50” value in assay [1] was over 1 µg/mL. Moreover, the “pseudovirus neutralization IC90” value in assay [2] was over 1 µg/mL. The “ELISA binding EC50” value in assay [3] stood at 0.00355 µg/mL.

B8: C1443 (protein)
chain 1: QVQLVESGGGVVQPGRSLRLSCAASGFTLSSHGMNWVRQAPGKGLEWVAVIWYDGSNKYYADSVKGRFTISRDNSKNTLDLQMNSLRAEDTAVYYCARDRMSSSWANFDYWGQGTLVTVSS
chain 2: NFMLTQPHSVSESPGKTVTISCTRSSGSIASNYVQWYQQRPGSSPTTVIYEDNQRPSGVPDRFSGSIDSSSNSASLTISGLKTEDEADYYCQSYDSSKHHVVFGGGTKLTVL
B8: the “pseudovirus neutralization IC50” value in assay [1] came to 0.474 µg/mL. For the same molecule, in assay [2], the “pseudovirus neutralization IC90” value was over 1 µg/mL. In addition, the “ELISA binding EC50” value in assay [3] came to 0.00277 µg/mL.

B9: C1439 (protein)
chain 1: EVQLVETGGGLIQPGGSLRLSCAASGIIVSSNYMSWVRQAPGKGLEWVSVIYSGGSTFYADSVKGRFTISRDNSKNTLYLQMNSLRAEDTAVYYCARDRGNDAFDIWGQGTMVTVSS
chain 2: DIQLTQSPSFLSASVGDRVTITCRASQGISSYLAWYQQKPGKAPKLLIYAASTLQSGVPSRFSGSGSGTEFTLTISSLQPEDFATYYCQQLNSYPPSVTFGGGTKVEIK
In the case of B9, in assay [1], the “pseudovirus neutralization IC50” value amounted to 0.00289 µg/mL. Moreover, the “pseudovirus neutralization IC90” value in assay [2] was 0.0871 µg/mL. Also, the “ELISA binding EC50” value in assay [3] turned out to be 0.00248 µg/mL.

B10: C1207 (protein)
chain 1: EVQLVESGGGLVQPGGSLRLSCAASGVIVSSNYMNWVRQAPGKGLEWVSVIYSGGSTFYADSVKGRFTISRDNSKNTLYLQMNSLRAEDTAVYYCARESYGMDVWGQGTTVTVSS
chain 2: B9 chain 2 with Y32D, S97R, V98Y, G102Q, V106L
For B10, the “pseudovirus neutralization IC50” value in assay [1] was 0.00643 µg/mL. Also, the “pseudovirus neutralization IC90” value in assay [2] was determined as 0.145 µg/mL. Besides, the “ELISA binding EC50” value in assay [3] is 0.00201 µg/mL.

B11: C1239 (protein)
chain 1: QVQLVQSGAEVKKPGSSVKVSCKASGYTFSSYAISWVRQAPGQGLEWMGGIIPILGIANYAQKFQGRVTITADKSTSTAYMELSSLRSEDTAVYYCARVLYYYDSSGYYRTDDAFDIWGQGTMVTVSS
chain 2: QSVLTQPPSVSGAPGQRVTISCTGSSSNIGAGYDVHWYQQLPGTAPKLLIYGNSNRPSGVPDRFSGSKSGTSASLAITGLQAEDEADYYCQSYDSSLSGHVVFGGGTKLTVL
Consider B11, for which the “pseudovirus neutralization IC50” value in assay [1] came to 0.414 µg/mL. Also, the “pseudovirus neutralization IC90” value in assay [2] was over 1 µg/mL. In addition, the “ELISA binding EC50” value in assay [3] is 0.00377 µg/mL.

B12: C1245 (protein)
chain 1: QVQLVQSGAEVKKPGSSVKVSCKASGGTFSRYAISWVRQAPGQGLEWMGRIIPILGIANYAQKFQGRVTITADKSTSIAYMELSSLRSEDTAVYYCARVLFYYDTSGPRSDDAFDIWGQGTMVTVSS
chain 2: B11 chain 2 with S98N, H100S, V101G
On to B12, for which the “pseudovirus neutralization IC50” value in assay [1] came out at 0.0178 µg/mL. Also, in assay [2], the “pseudovirus neutralization IC90” value came out at 0.344 µg/mL. Moreover, the “ELISA binding EC50” value in assay [3] stood at 0.00335 µg/mL.

B13: C1243 (protein)
chain 1: QVQLVESGGGVVQPGGSLRLSCAASGFIFSNYGMHWVRQAPGKGLEWVAFIRYDGSNKYYVDSVKGRFTFSRDNSKNTLYLQMNSLRAEDTAVYYCAKDGGPYYYDRSGYARDDYYGMDVWGQGTTVTVSS
chain 2: QSVLTQPPSVSGAPGQRVTISCTGSSSNIGAGYDVHWYQQLPGTAPKLLIYGNSNRPSGVPDRFSGSKSGTSASLAITGLQAEDEADYYCQSYDSSLSVWVFGGGTKLTVL
With B13, the “pseudovirus neutralization IC50” value in assay [1] was determined as 0.0608 µg/mL. For the same molecule, in assay [2], the “pseudovirus neutralization IC90” value was 0.65 µg/mL. Also, the “ELISA binding EC50” value in assay [3] was found to be 0.00246 µg/mL.

B14: C1244 (protein)
chain 1: QVQLVQSGAEVKKPGSSVKVSCKASGGTFSTYTINWVRQAPGQGLEWMGGIIPFLGIANYAQKFQGRVMITADKSTSTAYMELNSLRSEDTAVYYCARQGVLYYESSGLMAHYFDYWGQGTLVTVSS
chain 2: B13 chain 2 with G30E, S54T, K68Q, S72L, V99G, W100S, G104T, L108V
Regarding B14, the “pseudovirus neutralization IC50” value in assay [1] worked out at 0.0101 µg/mL. Besides, the “pseudovirus neutralization IC90” value in assay [2] was over 1 µg/mL. Also, in assay [3], the “ELISA binding EC50” value was 0.00332 µg/mL.

B15: C1437 (protein)
chain 1: QVQLVQSGAEVKKPQSSVKVSCTASGGSFRNYAISWVRQAPGQGLEWMGRTIPILGIGNYAQKFQGRVTITADKSTSTAYMQLSSLRSEDTAVYYCARETWYYDRSGYPRSDEYFQYWGQGTLVTVSS
chain 2: B13 chain 2 with A45S, V99G, W100L
Take B15: in assay [1], the “pseudovirus neutralization IC50” value was 0.0724 µg/mL. For the same molecule, the “pseudovirus neutralization IC90” value in assay [2] came out at 0.489 µg/mL. Also, in assay [3], the “ELISA binding EC50” value stood at 0.00358 µg/mL.

B16: C1441 (protein)
chain 1: EVQLVESGGGLVQPGGSLRLSCAASEFTVSSNYMNWVRQAPGKGLEWVSVIYSGGSTFYADSVKGRFTISRDNSKNTLYLQMNSLRVEDTAVYYCARELRGYFDYWGQGTLVTVSS
chain 2: DIQLTQSPSFLSASVGDRVTITCRASQGISSYLAWYQQKPGKAPKLLIYAASTLQSGVPSRFSGSGSGTEFTLTISSLQPEDFATYYCQQLNSYPMYTFGQGTKLEIK
Consider B16, for which, in assay [1], the “pseudovirus neutralization IC50” value stood at 0.00794 µg/mL. Besides, in assay [2], the “pseudovirus neutralization IC90” value turned out to be 0.103 µg/mL. Also, the “ELISA binding EC50” value in assay [3] came out at 0.00282 µg/mL.
